Source: the supplement of paper PMC9446081
The campaign covered roughly 39,000 compounds. About 220 (0.56%) showed activity. Some of the results follow.

System: Escherichia coli K-12 BW25113
Assay: relative growth (OD600 normalised to plate interquartile mean) (fraction); higher = less growth inhibition, active = 0.2 or less
Conditions: 50 µM; LB; incubation time: overnight (16-24 h)
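Note: static incubation at 37 °C against the wild-type strain, values averaged over two biological replicates.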

| SMILES | relative growth |
| --- | --- |
| COc1nc(=NC(=O)NS(=O)(=O)Nc2cccc3cccnc23)nc(OC)[nH]1 | inactive: 0.863 |
| C=CCOC(=O)[C@@H]1[C@H]2C(=O)O[C@H](c3ccccc3)[C@H](c3ccccc3)N2[C@H](c2ccccc2OCCO)[C@@]12C(=O)Nc1ccc(I)cc12 | inactive: 0.995 |
| C[C@@H]1CN([C@H](C)CO)C(=O)c2cc(NC(=O)Cn3cnnn3)ccc2O[C@@H]1CN(C)C(=O)Nc1ccccc1 | inactive: 0.987 |
| COc1ccc(CN(C)C[C@H]2Oc3ccc(NS(=O)(=O)c4c(C)noc4C)cc3CC(=O)N([C@H](C)CO)C[C@H]2C)cc1 | inactive: 1.01 |
| COc1ccc2c3c(n(c2c1)C)[C@H](CO)N(C[C@]13CCN(CC1)Cc1cccc(c1)F)C(=O)Nc1ccc(cc1)F | inactive: 1.01 |
| C[C@@H]1CCCCO[C@@H](CN(C)C(=O)Nc2cccc3ccccc23)[C@@H](C)CN([C@H](C)CO)C(=O)c2cc(NC(=O)Nc3ccc(F)cc3)ccc2O1 | inactive: 0.992 |
| C[C@@H]1CN([C@@H](C)CO)C(=O)c2cccc(NC(=O)Nc3ccc(C(F)(F)F)cc3)c2O[C@H]1CN(C)Cc1ccc(Oc2ccccc2)cc1 | inactive: 0.954 |
| CCOC(=O)COc1ccc2c(=O)cc(-c3ccccc3)oc2c1 | inactive: 1.02 |
| Cn1c(=O)c2c(ncn2C[C@@H](O)COc2ccccc2)n(C)c1=O | inactive: 0.901 |
| CN(C)CC#Cc1ccc([C@H]2[C@H]3CN(C(=O)CN(C)C)CCCCN3[C@H]2CO)cc1 | inactive: 1.01 |
| C[C@H]1CN([C@@H](C)CO)C(=O)Cc2cc(NC(=O)CCN3CCOCC3)ccc2O[C@@H]1CN(C)S(=O)(=O)c1cn(C)cn1 | inactive: 1.03 |
| C[C@H](CO)N1C[C@H](C)[C@H](CN(C)S(=O)(=O)c2cccs2)Oc2c(NC(=O)C3CCOCC3)cccc2C1=O | inactive: 1.03 |
| C[C@H]1CN([C@@H](C)CO)C(=O)Cc2cc(NC(=O)Cc3ccccc3)ccc2O[C@H]1CN(C)Cc1ccc(Oc2ccccc2)cc1 | inactive: 1 |
| C[C@@H]1CN([C@H](C)CO)C(=O)c2cc(NS(=O)(=O)c3cn(C)cn3)ccc2O[C@H]1CN(C)Cc1ccc2c(c1)OCO2 | inactive: 0.847 |
| C[C@@H]1CN([C@H](C)CO)S(=O)(=O)c2ccc(C#CCN(C)C)cc2O[C@@H]1CN(C)C(=O)c1ccccc1F | inactive: 0.993 |
| C[C@H](CO)N1C[C@H](C)[C@@H](CN(C)S(=O)(=O)c2ccc(Cl)cc2)OCCCC[C@H](C)Oc2ccc(NC(=O)c3ccccc3)cc2C1=O | inactive: 1.02 |
| C[C@@H]1CCCCO[C@@H](CN(C)Cc2ccc3c(c2)OCO3)[C@H](C)CN([C@H](C)CO)C(=O)c2cc(NS(=O)(=O)c3cccs3)ccc2O1 | inactive: 1.03 |
| COCC#Cc1ccc2c(c1)O[C@H](CN(C)S(=O)(=O)c1ccc(OC)cc1)[C@H](C)CN([C@@H](C)CO)S2(=O)=O | inactive: 0.988 |
| COc1ccc(S(=O)(=O)Nc2ccc3c(c2)CC(=O)N([C@@H](C)CO)C[C@H](C)[C@H](CN(C)Cc2ccncc2)O3)cc1 | inactive: 0.987 |

| SMILES | relative growth |
| --- | --- |
| C[C@@H]1CCCCO[C@@H](CN(C)S(=O)(=O)c2cn(C)cn2)[C@H](C)CN([C@H](C)CO)C(=O)c2cc(NS(=O)(=O)c3ccccc3)ccc2O1 | inactive: 0.929 |
| CCOC(=O)C1=C(COCCN)NC(C)=C(C(=O)OC)C1c1ccccc1Cl.O=S(=O)(O)c1ccccc1 (stereo not drawn) | inactive: 0.929 |
| C[C@@H]1CN([C@@H](C)CO)C(=O)c2cc(NC(=O)Nc3ccc(C(F)(F)F)cc3)ccc2O[C@@H](C)CCCCO[C@H]1CN(C)Cc1ccc(Cl)c(Cl)c1 | inactive: 1.03 |
| O=C(OC(C(F)(F)F)C(F)(F)F)N1CCN(Cc2ccc(C(F)(F)F)cc2N2CCCC2)CC1 | inactive: 0.994 |
| COc1ccc(NC(=O)Nc2ccc3c(c2)C(=O)N([C@H](C)CO)C[C@H](C)[C@H](CN(C)CC2CCCCC2)O3)cc1 | inactive: 0.998 |
| COc1ccc(S(=O)(=O)Nc2ccc3c(c2)C(=O)N([C@@H](C)CO)C[C@@H](C)[C@@H](CN(C)CC2CCCCC2)OCCCC[C@@H](C)O3)cc1 | inactive: 0.971 |
| C[C@@H]1CCCCO[C@@H](CN(C)S(=O)(=O)c2ccc(F)cc2)[C@H](C)CN([C@H](C)CO)C(=O)c2cc(NC(=O)Cc3ccccc3)ccc2O1 | inactive: 1.01 |
| Cc1noc(C)c1NC(=O)Nc1ccc2c(c1)C(=O)N([C@@H](C)CO)C[C@@H](C)[C@H](CN(C)S(=O)(=O)c1ccccc1)OCCCC[C@@H](C)O2 | inactive: 0.983 |
| CC12CCC3c4ccc(O)cc4CCC3C1CC(O)C2O (stereo not drawn) | inactive: 1.1 |
| C[C@H](CO)N1C[C@H](C)[C@H](CN(C)C(=O)c2ccccn2)Oc2cc(C#Cc3ccccc3)ccc2S1(=O)=O | inactive: 0.999 |
| C[C@@H]1CN([C@@H](C)CO)C(=O)c2cc(NC(=O)C3CCCCC3)ccc2O[C@@H](C)CCCCO[C@H]1CN(C)Cc1ccc(C(=O)O)cc1 | inactive: 0.977 |
| C[C@@H]1CN([C@H](C)CO)S(=O)(=O)c2ccc(C#CC3(O)CCCC3)cc2O[C@@H]1CN(C)C(=O)c1ccccc1 | inactive: 0.993 |
| N=C(N)NCCNS(=O)(=O)c1cccc2cnccc12 | inactive: 0.956 |
| O=C1CC[C@@H](C(=O)N2CSC[C@H]2C(=O)O)N1 | inactive: 0.982 |
| O=C(C1=C[C@@H](c2ccsc2)C[C@@H](OCCCCO)O1)N1CCN(Cc2ccc3c(c2)OCO3)CC1 | inactive: 0.985 |
| C[C@@H]1CN([C@@H](C)CO)C(=O)c2cc(NS(=O)(=O)c3ccc(Cl)cc3)ccc2O[C@@H]1CN(C)Cc1ccc(Oc2ccccc2)cc1 | inactive: 1 |
| C[C@@H]1CN([C@H](C)CO)C(=O)Cc2cc(NC(=O)Cn3cnnn3)ccc2O[C@H]1CN(C)S(=O)(=O)c1ccccc1 | inactive: 1.03 |
| CCC(=O)N(C)C[C@H]1Oc2ncc(C#C[C@H](C)O)cc2C(=O)N([C@@H](C)CO)C[C@@H]1C | inactive: 1 |
| C[C@H]1CCCCO[C@@H](CN(C)C(=O)Nc2ccc3c(c2)OCO3)[C@@H](C)CN([C@@H](C)CO)C(=O)c2cc(NC(=O)Nc3ccc(F)cc3)ccc2O1 | inactive: 1.05 |
